Test results reported in the supplement of paper PMC8728848.
The list shows a part of the results.

Columns and labels:
Assay in all cases: glycan array binding signal (z-score within array); higher = stronger binding
Conditions in all cases: glycan notation: IUPAC condensed, linker removed
[1] = target: Gal(b1-3)GlcNAc(b1-6)[Gal(b1-3)]GalNAc
Procedure, shortened: (§1)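 Glycan array data came from 3228 arrays in the Consortium for Functional Glycomics database, and only arrays with an available protein sequence were kept. Glycan names were put into IUPAC-condensed notation, and columns mapping to the same glycan were averaged. The binding signal is a within-array Z-score, averaged across arrays of one protein sequence run at different concentrations or buffers and across linkers. A negative Z-score can be read as non-binding.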

[2] = target: Gal(b1-3)GlcNAc6S
Procedure, shortened: as §1

[3] = target: Gal(b1-3)[Fuc(a1-4)]GlcNAc
Procedure, shortened: as §1

[4] = target: Gal(b1-3)[Fuc(a1-4)]GlcNAc(b1-2)Man
Procedure, shortened: as §1

[5] = target: Gal(b1-3)[Fuc(a1-4)]GlcNAc(b1-2)Man(a1-3)[Gal(b1-3)[Fuc(a1-4)]GlcNAc(b1-2)Man(a1-6)]Man(b1-4)GlcNAc(b1-4)[Fuc(a1-6)]GlcNAc
Procedure, shortened: as §1

[6] = target: Gal(b1-3)[Fuc(a1-4)]GlcNAc(b1-3)Gal(b1-3)[Fuc(a1-4)]GlcNAc
Procedure, shortened: as §1

[7] = target: Gal(b1-3)[Fuc(a1-4)]GlcNAc(b1-3)Gal(b1-4)[Fuc(a1-3)]GlcNAc
Procedure, shortened: as §1

[8] = target: Gal(b1-3)[Fuc(a1-4)]GlcNAc(b1-6)GalNAc
Procedure, shortened: as §1

[9] = target: Gal(b1-3)[GlcNAc(b1-6)]GalNAc
Procedure, shortened: as §1

[10] = target: Gal(b1-3)[Neu5Ac(a2-6)]GalNAc
Procedure, shortened: as §1

[11] = target: Gal(b1-3)[Neu5Ac(a2-6)]GlcNAc(b1-4)Gal(b1-4)Glc
Procedure, shortened: as §1

[12] = target: Gal(b1-3)[Neu5Ac(b2-6)]GalNAc
Procedure, shortened: as §1

[13] = target: Gal(b1-4)Gal
Procedure, shortened: as §1

[14] = target: Gal(b1-4)GalNAc(a1-3)[Fuc(a1-2)]Gal(b1-4)GlcNAc
Procedure, shortened: as §1

[15] = target: Gal(b1-4)GalNAc(b1-3)[Fuc(a1-2)]Gal(b1-4)GlcNAc
Procedure, shortened: as §1

[16] = target: Gal(b1-4)Glc
Procedure, shortened: as §1

[17] = target: Gal(b1-4)Glc6S
Procedure, shortened: as §1

[18] = target: Gal(b1-4)GlcNAc
Procedure, shortened: as §1

[19] = target: Gal(b1-4)GlcNAc(a1-6)Gal(b1-4)GlcNAc
Procedure, shortened: as §1

[20] = target: Gal(b1-4)GlcNAc(b1-2)Man
Procedure, shortened: as §1

[21] = target: Gal(b1-4)GlcNAc(b1-2)Man(a1-3)Man(b1-4)GlcNAc(b1-4)GlcNAc
Procedure, shortened: as §1

[22] = target: Gal(b1-4)GlcNAc(b1-2)Man(a1-3)[Gal(b1-4)GlcNAc(b1-2)Man(a1-6)]Man(b1-4)GlcNAc(b1-4)GlcNAc
Procedure, shortened: as §1

[23] = target: Gal(b1-4)GlcNAc(b1-2)Man(a1-3)[Gal(b1-4)GlcNAc(b1-2)Man(a1-6)]Man(b1-4)GlcNAc(b1-4)[Fuc(a1-6)]GlcNAc
Procedure, shortened: as §1

[24] = target: Gal(b1-4)GlcNAc(b1-2)Man(a1-3)[Gal(b1-4)GlcNAc(b1-2)Man(a1-6)][Gal(b1-4)GlcNAc(b1-4)]Man(b1-4)GlcNAc(b1-4)[Fuc(a1-6)]GlcNAc
Procedure, shortened: as §1

[25] = target: Gal(b1-4)GlcNAc(b1-2)Man(a1-3)[Gal(b1-4)GlcNAc(b1-2)Man(a1-6)][GlcNAc(b1-4)]Man(b1-4)GlcNAc(b1-4)[Fuc(a1-6)]GlcNAc
Procedure, shortened: as §1

[26] = target: Gal(b1-4)GlcNAc(b1-2)Man(a1-3)[GlcNAc(b1-2)Man(a1-6)]Man(b1-4)GlcNAc(b1-4)GlcNAc
Procedure, shortened: as §1

[27] = target: Gal(b1-4)GlcNAc(b1-2)Man(a1-3)[GlcNAc(b1-4)][Gal(b1-4)GlcNAc(b1-2)Man(a1-6)]Man(b1-4)GlcNAc(b1-4)GlcNAc
Procedure, shortened: as §1

[28] = target: Gal(b1-4)GlcNAc(b1-2)Man(a1-3)[Man(a1-6)]Man(b1-4)GlcNAc(b1-4)GlcNAc
Procedure, shortened: as §1

[29] = target: Gal(b1-4)GlcNAc(b1-2)Man(a1-6)Man(b1-4)GlcNAc(b1-4)GlcNAc
Procedure, shortened: as §1

[30] = target: Gal(b1-4)GlcNAc(b1-2)Man(a1-6)[GlcNAc(b1-2)Man(a1-3)]Man(b1-4)GlcNAc(b1-4)GlcNAc
Procedure, shortened: as §1

[31] = target: Gal(b1-4)GlcNAc(b1-2)Man(a1-6)[Man(a1-3)]Man(b1-4)GlcNAc(b1-4)GlcNAc
Procedure, shortened: as §1

[32] = target: Gal(b1-4)GlcNAc(b1-2)[Gal(b1-4)GlcNAc(b1-4)]Man(a1-3)[Gal(b1-4)GlcNAc(b1-2)Man(a1-6)]Man(b1-4)GlcNAc(b1-4)GlcNAc
Procedure, shortened: as §1

[33] = target: Gal(b1-4)GlcNAc(b1-2)[Gal(b1-4)GlcNAc(b1-4)]Man(a1-3)[Gal(b1-4)GlcNAc(b1-2)[Gal(b1-4)GlcNAc(b1-6)]Man(a1-6)]Man(b1-4)GlcNAc(b1-4)GlcNAc
Procedure, shortened: as §1

[34] = target: Gal(b1-4)GlcNAc(b1-2)[Gal(b1-4)GlcNAc(b1-4)]Man(a1-3)[GlcNAc(b1-4)][Gal(b1-4)GlcNAc(b1-2)Man(a1-6)]Man(b1-4)GlcNAc(b1-4)GlcNAc
Procedure, shortened: as §1

[35] = target: Gal(b1-4)GlcNAc(b1-2)[Gal(b1-4)GlcNAc(b1-4)]Man(a1-3)[GlcNAc(b1-4)][Gal(b1-4)GlcNAc(b1-2)[Gal(b1-4)GlcNAc(b1-6)]Man(a1-6)]Man(b1-4)GlcNAc(b1-4)GlcNAc
Procedure, shortened: as §1

[36] = target: Gal(b1-4)GlcNAc(b1-2)[Gal(b1-4)GlcNAc(b1-6)]Man(a1-6)[Gal(b1-4)GlcNAc(b1-2)Man(a1-3)]Man(b1-4)GlcNAc(b1-4)GlcNAc
Procedure, shortened: as §1

[37] = target: Gal(b1-4)GlcNAc(b1-2)[Gal(b1-4)GlcNAc(b1-6)]Man(a1-6)[Gal(b1-4)GlcNAc(b1-2)Man(a1-3)]Man(b1-4)GlcNAc(b1-4)[Fuc(a1-6)]GlcNAc
Procedure, shortened: as §1

B1: PX14375F-bfa-539-21-539 (Bacteroides fragilis) (protein)
chain: EDFLQKDPPSSPSQSVFWQKKSDFESALAGTYSVMYSGVFSQIMPCLDGLTDNAIVQHSEGTYGWAKTIAQGDLTPNQGGFVTDIYGNCYKGIARVHILMEQLDQYTGSDISADEKKFMLAQCKALRGYFYSWLYQCYKEVPVVTQSLDLNTMYQPKATRAEVLNRVMTDYDEAISELPDKLYSDSQTSGRFTVSAVKALKARILLFDAYDSNGKAISSKMEEVLTLLQSIKGYSLAARVRDNFISEKQLASPEIMFSVRFLRPNLTHSMDLYYGAWAVLDPTRNMVDAFECTDGKPWGESPLTVRPDESILYGNDDALKKAERAKMFMNRDRRLYESVNHSMMANFVDDGFKDEEVQVNESNNKGPTGFSALKYVQPTDVTPGYSTVSDADIVVLRYAHVLLMIAEAENEAHGATTTALNAINEVRTRSGQPAIEAGISQDDLRERIRNEWRIETCFEGLRYFQLKRWKLMDKRVNGVEDPAYPGYIKVYKPAFEFFPIPQSEIDKAGGVLKQDPAYE
glycan array binding signal (z-score) [1]: 0.776 | glycan array binding signal (z-score) [2]: -0.205 | glycan array binding signal (z-score) [3]: -0.323 | glycan array binding signal (z-score) [4]: -0.404 | glycan array binding signal (z-score) [5]: 2.29 | glycan array binding signal (z-score) [6]: -0.301 | glycan array binding signal (z-score) [7]: -0.084 | glycan array binding signal (z-score) [8]: 0.122 | glycan array binding signal (z-score) [9]: 0.297 | glycan array binding signal (z-score) [10]: -0.246 | glycan array binding signal (z-score) [11]: -0.711 | glycan array binding signal (z-score) [12]: -0.427 | glycan array binding signal (z-score) [13]: -0.203 | glycan array binding signal (z-score) [14]: -0.015 | glycan array binding signal (z-score) [15]: -0.125 | glycan array binding signal (z-score) [16]: -0.577 | glycan array binding signal (z-score) [17]: 0.083 | glycan array binding signal (z-score) [18]: -0.252 | glycan array binding signal (z-score) [19]: -0.526 | glycan array binding signal (z-score) [20]: 0.025 | glycan array binding signal (z-score) [21]: 1.62 | glycan array binding signal (z-score) [22]: -0.389 | glycan array binding signal (z-score) [23]: -0.146 | glycan array binding signal (z-score) [24]: -0.27 | glycan array binding signal (z-score) [25]: -0.512 | glycan array binding signal (z-score) [26]: -0.38 | glycan array binding signal (z-score) [27]: -0.811 | glycan array binding signal (z-score) [28]: 0.054 | glycan array binding signal (z-score) [29]: 1.01 | glycan array binding signal (z-score) [30]: 0.713 | glycan array binding signal (z-score) [31]: -0.85 | glycan array binding signal (z-score) [32]: 0.363 | glycan array binding signal (z-score) [33]: -0.785 | glycan array binding signal (z-score) [34]: -0.165 | glycan array binding signal (z-score) [35]: -0.413 | glycan array binding signal (z-score) [36]: -0.067 | glycan array binding signal (z-score) [37]: 2.08
